These results are taken from PMC12136788.

Sequences and labels used below:
T1: UNK ZnF1-3 (human, UniProt Q9C0B0 31-174)
T1 sequence: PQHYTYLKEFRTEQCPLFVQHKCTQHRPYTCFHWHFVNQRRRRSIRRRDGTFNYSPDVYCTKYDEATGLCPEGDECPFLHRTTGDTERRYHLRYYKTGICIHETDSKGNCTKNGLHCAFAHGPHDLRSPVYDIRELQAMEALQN

B1: chr1:39494564:39494565:+_ENSG00000168653_ENST00000372967|hu_hu|hu_hu_hu_mus_True|68_108 (ssRNA)
RNA: GGGAGUUCUACAGUCCGACGAUCAUGUGCACGUCUCAUCGUUUUGUACCGAAGCAAGCACUCUUCGAAAUCAUCAUACUCUAUCUUGCACUCCUUUUUCGCCCGGGUCCCACCGAUCCCGUGUGCACACUCUAUCCACUCUUUCAACAGAGGAUUGAGCAUCA
B2: 169404142_169417752_467_CDS_ENSG00000172292_ENST00000392687|human|control|control (ssRNA)
RNA: GGGAGUUCUACAGUCCGACGAUCAUCCCAGUCCAGUUGCUUGGAGAGGCCUUCCAAUCUCUUUUCAUCAGGAUGCUUUGUAAUUGCAGUGAAGACCUUUUCCAGAAUGGCAUUGGGCGGAGCAAUUUGUGGUCCAUUGGCCUGCAACAGAGGAUUGAGCAUCA
B3: chr4:48472932:48472933:-_ENSMUSG00000028345_ENSMUST00000030030|mus_mus|motif|central (ssRNA)
RNA: GGGAGUUCUACAGUCCGACGAUCGGUUGAAGCAUUUGCCAGCGAGACCAUGAUAUCAGACAGUGUUAAGUUCAGUAAAAGAUGAUCGGCAUUAUUGGAGAGAACUGUGCAAUGCUUGAUGCUUUUAUUUGUAUCUUUCUUCCGCAACAGAGGAUUGAGCAUCA
B4: chrX:140365796:140365797:-_ENSMUSG00000031285_ENSMUST00000033642|mus_mus|mus_mus_mus_hu_False|98_108 (ssRNA)
RNA: GGGAGUUCUACAGUCCGACGAUCCUUCUCAUUACUUAAUGCCUGCAAGGUUCUGGUUCGGUAGAAGCUACAGUGGGCGCUGUGAGUGGGGCUAGGCAACCCAUUCAUCCGGGAGCCUCGCAUGUUCCUGGAUGUCUUAUCUCUCAACAGAGGAUUGAGCAUCA
B5: 18916197_18916317_843_CDS_ENSMUSG00000020160_ENSMUST00000068264|mouse|control|control (ssRNA)
RNA: GGGAGUUCUACAGUCCGACGAUCCAUGGCGUUGGUGUGAGCUGUGUGCGGGUACUGAUGCGAGUGCAGAGGAGGCCCGUGGUUCAGGUGGUGGACCGGUUGCAUGGACCUGGCUGCAUGCGGGUCCCCAUACAUCGUGGAGGGCAACAGAGGAUUGAGCAUCA
B6: chr16:17389515:17389516:-_ENSMUSG00000041720_ENSMUST00000036161|mus_mus|FALSE|FALSE (ssRNA)
RNA: GGGAGUUCUACAGUCCGACGAUCUCAGAUUCAAUGAGAAAAAUGCCCAAUGCAAUCACUGCAUCUCUCCGUCUUUCAUCUAGUUGGAAGAUUCCAUGAAAAUCUACUGGGCACAUGCAAAGCAGCUUUUGAACCUGAGACAGGCAACAGAGGAUUGAGCAUCA
B7: chr17:73519777:73519778:+_ENSG00000182173_ENST00000333213|hu_mus|FALSE|FALSE (ssRNA)
RNA: GGGAGUUCUACAGUCCGACGAUCUUUGCCAGGGCUGUUUUUUCGGAACGUCGCCACAGCGUCAGCCUGGUAAACAUCGAAGCUGAUCUGCAAGCCUCCAGACUUCUCCAGCAGCCGGUAACCUCCAUCAGCAAGGUGUGUCGUCAACAGAGGAUUGAGCAUCA
B8: 44136230_44137174_737_CDS_ENSMUSG00000032123_ENSMUST00000054708|mouse|control|control (ssRNA)
RNA: GGGAGUUCUACAGUCCGACGAUCUAGUGACUGACCGGCCUCUAGGCCAUUAAUGCCCGCCAGGAUGUUGAUGGCAUUGGUACAGAACACUGCAAGCAGCCCCAUGUAGACGUAGUACAGGAUCCCCAAGUCCAAAUGCAGGCCCAACAGAGGAUUGAGCAUCA
B9: chr6:148129406:148129407:-_ENSMUSG00000030304_ENSMUST00000136008|mus_mus|FALSE|FALSE (ssRNA)
RNA: GGGAGUUCUACAGUCCGACGAUCCUAGGCUGCUUCAGACUUCAGUCUUGUAUGGACACUGCCUUGCCUGUCUCAGAUGUCCAGUUUUCCACUACUCAUAAGCAUACAACACUCAACUUUACCCUUCACAUCUUACAAACUGUUCAACAGAGGAUUGAGCAUCA
B10: chr10:33214929:33214930:-_ENSG00000150093_ENST00000302278|hu_hu|hu_hu_hu_mus_True|38_38 (ssRNA)
RNA: GGGAGUUCUACAGUCCGACGAUCAACAAGUUCAUUGAAAAACUCUCCUCUGUCAGUAAGACUAAGCACAUUUUUGUAGCUAAAUGGGCUGGUGCAGUUCUGUUCACUUGUACAAGGAUUUCUUAGCUUUGCUGGGGUUGUGCUCAACAGAGGAUUGAGCAUCA
B11: chr16:45737064:45737065:-_ENSMUSG00000033157_ENSMUST00000066983|mus_mus|motif|central (ssRNA)
RNA: GGGAGUUCUACAGUCCGACGAUCAAGUGCAUGAUAUUGUGUCACCAAUCCAUCUGCAGCAGUAGCUAUACCAAUAAGAGCGGUGACUUUUUCCGGCCGUGCAAUUGCAGCAUGCAGCAUGAGCCAUCCACCAAGACUGGAUCCCAACAGAGGAUUGAGCAUCA
B12: chr14:57521723:57521724:+_ENSMUSG00000021945_ENSMUST00000022511|mus_mus|FALSE|FALSE (ssRNA)
RNA: GGGAGUUCUACAGUCCGACGAUCUACAGGUUCAAUAAAAACAACGUCAUCAUCAUCUUCUACUGAUGAGUUCUGAAACUUACUAGAUCUAGACACUAAAGGAUUAGGUGGGCCACUAAAUGAAUUUCCUACGUUCGUGAGACUCAACAGAGGAUUGAGCAUCA
B13: chr4:184628046:184628047:+_ENSG00000168538_ENST00000334690|hu_mus|FALSE|FALSE (ssRNA)
RNA: GGGAGUUCUACAGUCCGACGAUCGAGGCCUGAGAACAUGAAGGCGUCACUGGGCUCCACAGAAAUCUCCACAUCUUGAACCAAGUCGGUCUUAUUCUGCAGGUGGUACCUGACGGGCAACGACUCUCUGACACGUCCAAACGACAACAGAGGAUUGAGCAUCA
B14: chr2:42509997:42509998:+_ENSG00000143924_ENST00000318522|hu_mus|hu_hu_hu_mus_True|58_68 (ssRNA)
RNA: GGGAGUUCUACAGUCCGACGAUCUCGCUGAGUCCUCUCCUCAUAAUUAAACAGGACUACCACUGAGGCAAUGAAAUAAACUAUUUUCCCUGUGGGAAGCAGGUAUACAUUCGCUCUACAGUCCUUUCCUCGAUAACCGUAUACCAACAGAGGAUUGAGCAUCA
B15: chr13:100200883:100200884:-_ENSMUSG00000052727_ENSMUST00000064762|mus_hu|FALSE|FALSE (ssRNA)
RNA: GGGAGUUCUACAGUCCGACGAUCGAUAUCAGAUUUUGGAGAGAGCUUCUCUCCUUCCAGACUUUGCACUUUUUCAGAGGUGAGUGAGGCAUAUAAGGACAUAUCUCUGGGAGGAGCAACAUCGGAUAGAGUAUCUUCUUGGAGCAACAGAGGAUUGAGCAUCA
B16: chr16:94690093:94690094:+_ENSMUSG00000040785_ENSMUST00000117648|mus_hu|mus_mus_mus_hu_True|88_88 (ssRNA)
RNA: GGGAGUUCUACAGUCCGACGAUCGGGCUGGGAUGACGGACACACAGAUCUUCCCAGAGGGGGAAAAAGUCUUAGUCGAUACUAAUUAAAAAGUGUUAAUGAUUUUUGAAAAUCAGAUUACAUCUAUAAAAGAUGAAAAGCAAACAACAGAGGAUUGAGCAUCA
B17: 107908216_107908336_2743_3pUTR_ENSMUSG00000034636_ENSMUST00000043616|mouse|control|control (ssRNA)
RNA: GGGAGUUCUACAGUCCGACGAUCUUUUUACAGAGCAAUAUAAAAUUACAUCGAGGUGGAGCUGAAGUCAAGUCAGCAGCCUUGCUCACCUGCAAGGAAGCCUGCGGAAGAGUGCGUGCAGCUUACCGUGAAACUGUAGAAUUUCAACAGAGGAUUGAGCAUCA
B18: chr3:176767854:176767855:-_ENSG00000177565_ENST00000430069|hu_hu|hu_hu_hu_mus_False|8_18 (ssRNA)
RNA: GGGAGUUCUACAGUCCGACGAUCGACAUCCUUGUUACUGGGCACGUCCUGCCCUCCUUCCCGUAUGCAGUGUCUAAGCACGAGCUGCGUAGGGCCACUCGUGCUGUUCUCACUGAGAUUCCAUAUUCUUGCUGUUGAGUCUCCCAACAGAGGAUUGAGCAUCA
B19: chr16:37883567:37883568:+_ENSMUSG00000034158_ENSMUST00000078717|mus_mus|FALSE|FALSE (ssRNA)
RNA: GGGAGUUCUACAGUCCGACGAUCUCGAUCCACACAGAGUACUUGCGCUCAGGAGGAGCAAUGAUCUUGAUCUUCAUGGUGCUAGGAGCCAGAGCAGUAAUCUCCUUCUGCAUCCUGUCAGCAAUGCCUGGGUACAUGGUGGUACAACAGAGGAUUGAGCAUCA
B20: chr17:65740002:65740003:+_ENSG00000130935_ENST00000581375|hu_hu|hu_hu_hu_mus_False|28_28 (ssRNA)
RNA: GGGAGUUCUACAGUCCGACGAUCAACAAAUCUUUCUUCCCUGGACGAACAGGAAGAUUCAUAUUAAAAAAAAUAUAUAUCCAUCAAGUUAGGUGUGGUGGCCACACAGAGCUCCAGAGCACUUUGGGAGGUGGAUCUCUGAGUCAACAGAGGAUUGAGCAUCA
B21: chr5:10264876:10264877:+_ENSG00000150753_ENST00000503026|hu_hu|FALSE|FALSE (ssRNA)
RNA: GGGAGUUCUACAGUCCGACGAUCAUAACUGUAGAUGCAUCACGAGACAUCCAUUUACUUAAUCACAGAAGUGGAUCUUGCUACAUAGUUUUCUCAAUGUCUUCAUUCUUCAGAUUCUCCAGGCUUACGAAUGUCAUCAAUCUUCAACAGAGGAUUGAGCAUCA
B22: 87705659_87706451_6146_CDS_ENSG00000163629_ENST00000511467|human|control|control (ssRNA)
RNA: GGGAGUUCUACAGUCCGACGAUCCAGCAGAGACUGGAUAACUUCAGCUUCUUGGGAAUCAUCAUAAAUGUCAUCUUCUUGUAUAUAAGAUUCUUUGGGCAGAGUCAAGUUUGGUGAUCCCUUUAUCUGAUAAGUAGAACAUUUCAACAGAGGAUUGAGCAUCA

The list shows a part of the results.

This assay addresses T1, UNK ZnF1-3. The assay can be described thus: nsRBNS (natural sequence RNA bind-n-seq); RBNS binding buffer (assumed for nsRBNS): 25 mM Tris pH 7.5, 150 mM KCl, 3 mM MgCl2, 0.01% Triton X-100, 500 ug/ml BSA, 20 U/ml SUPERase-In, 4 C; UNK is unkempt and MSI1 is Musashi-1; names of the RNAs are library labels; protein concentration not given here; high values mean tight binding.
For the molecule B1, the binding signal amounted to 0.67 enrichment R.

Regarding B2, the binding signal is 0.773 enrichment R.

Consider B3, for which the binding signal was determined as 1.24 enrichment R.

For B4, the binding signal came to 0.659 enrichment R.

The molecule B5 registered a binding signal of 1.01 enrichment R.

The molecule B6 had a binding signal of 0.573 enrichment R.

Molecule B7 yielded a binding signal of 0.804 enrichment R.

With B8, the binding signal is 1.02 enrichment R.

The molecule B9 returned a binding signal of 0.833 enrichment R.

B10 registered a binding signal of 0.805 enrichment R.

B11: the binding signal was 1.25 enrichment R.

Take B12: the binding signal came to 0.722 enrichment R.

Molecule B13 registered a binding signal of 1.21 enrichment R.

In turn, B14 showed a binding signal of 1.53 enrichment R.

For B15, the binding signal worked out at 2.15 enrichment R.

Consider B16, for which the binding signal came out at 1.76 enrichment R.

For B17, the binding signal is 1.06 enrichment R.

Turning to B18, the binding signal came out at 0.386 enrichment R.

B19 yielded a binding signal of 1.11 enrichment R.

B20 yielded a binding signal of 2.02 enrichment R.

Turning to B21, the binding signal came out at 0.76 enrichment R.

As for B22, the binding signal was 0.985 enrichment R.
